# The other results are listed elsewhere or left out.
# B1: Arath Fbox (Arabidopsis thaliana), NP_178341.1 (protein)
# chain: EFTWGRKRRVKSESSPFDSFPEDCISYIISFTNPRDACVAATVSKTFESTVKSDIIWEKFLPADYESLIPPSRVFSSKKELYFSLCNDPVLFDDDKKSVWLEKASGKRCLMLSAMNLSIIWGDNPQYWQWIPIPESRFEKVAKLRDVCWFEIRGRTNTRVLSPRTRYSAYIVFKGVDKCYGFQNVAIEAAVGVVGQEPSRRLICFSEAIRRGRRNVVKPKQREDGWMEIELGEFFNDGGIMDNDEIEMSALETKQLNRKCGLIIQGIEIRPAKILAAAAASFLEQKLISEEDLNSAVDHHHHHH
# Columns and labels:
# Test in all cases: glycan array binding signal (z-score within array); higher = stronger binding
# Conditions in all cases: glycan notation: IUPAC condensed, linker removed
# [1] = target: GalNAc(a1-3)GalNAc(b1-3)Gal(a1-4)Gal(b1-4)GlcNAc
# How it was run: (§1)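 From the Consortium for Functional Glycomics database, 3228 arrays were curated, keeping only those whose protein sequence was available. Binding is given as a within-array Z-score averaged across arrays sharing a protein sequence and across linkers. Negative Z-scores can be read as non-binding.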
# GalNAc(b1-3)Gal = target: GalNAc(b1-3)Gal
# How it was run: as §1
# [2] = target: GalNAc(b1-3)Gal(a1-4)Gal(b1-4)GlcNAc
# How it was run: as §1
# [3] = target: GalNAc(b1-3)Gal(a1-4)Gal(b1-4)GlcNAc(b1-3)Gal(b1-4)Glc
# How it was run: as §1
# [4] = target: GalNAc(b1-3)Gal(a1-6)Gal(b1-4)Glc
# How it was run: as §1
# GalNAc(b1-3)GalNAc = target: GalNAc(b1-3)GalNAc
# How it was run: as §1
# GalNAc(b1-3)GlcNAc = target: GalNAc(b1-3)GlcNAc
# How it was run: as §1
# GalNAc(b1-4)Gal(b1-4)Glc = target: GalNAc(b1-4)Gal(b1-4)Glc
# How it was run: as §1
# GalNAc(b1-4)GlcNAc = target: GalNAc(b1-4)GlcNAc
# How it was run: as §1
# [5] = target: GalNAc(b1-4)GlcNAc(b1-2)Man
# How it was run: as §1
# [6] = target: GalNAc(b1-4)GlcNAc(b1-2)Man(a1-3)[GalNAc(b1-4)GlcNAc(b1-2)Man(a1-6)]Man(b1-4)GlcNAc(b1-4)GlcNAc
# How it was run: as §1
# [7] = target: GalNAc(b1-4)GlcNAc(b1-3)GalNAc(b1-4)GlcNAc
# How it was run: as §1
# GalNAc(b1-4)GlcNAc6S = target: GalNAc(b1-4)GlcNAc6S
# How it was run: as §1
# GalNAc(b1-6)GalNAc = target: GalNAc(b1-6)GalNAc
# How it was run: as §1
# GalNAc3S(b1-4)GlcNAc = target: GalNAc3S(b1-4)GlcNAc
# How it was run: as §1
# GalNAc3S(b1-4)GlcNAc3S = target: GalNAc3S(b1-4)GlcNAc3S
# How it was run: as §1
# [8] = target: GalNAc3S(b1-4)[Fuc(a1-3)]GlcNAc
# How it was run: as §1
# GalNAc4S6S(b1-4)GlcNAc = target: GalNAc4S6S(b1-4)GlcNAc
# How it was run: as §1
# GalNAc6S(b1-4)GlcNAc = target: GalNAc6S(b1-4)GlcNAc
# How it was run: as §1
# Glc(a1-4)Glc = target: Glc(a1-4)Glc
# How it was run: as §1
# [9] = target: Glc(a1-4)Glc(a1-4)Glc(a1-4)Glc
# How it was run: as §1
# Glc(a1-6)Glc(a1-6)Glc = target: Glc(a1-6)Glc(a1-6)Glc
# How it was run: as §1
# [10] = target: Glc(a1-6)Glc(a1-6)Glc(a1-6)Glc
# How it was run: as §1
# Glc(b1-4)Glc = target: Glc(b1-4)Glc
# How it was run: as §1
# Glc(b1-6)Glc = target: Glc(b1-6)Glc
# How it was run: as §1
# GlcA(b1-3)Gal = target: GlcA(b1-3)Gal
# How it was run: as §1
# GlcA(b1-3)GlcNAc = target: GlcA(b1-3)GlcNAc
# How it was run: as §1
# GlcA(b1-6)Gal = target: GlcA(b1-6)Gal
# How it was run: as §1
# [11] = target: GlcA3S(b1-3)Gal(b1-4)GlcNAc(b1-2)Man
# How it was run: as §1
# [12] = target: GlcA3S(b1-3)Gal(b1-4)GlcNAc(b1-3)Gal(b1-4)Glc
# How it was run: as §1
# [13] = target: GlcNAc(a1-3)Gal(b1-4)GlcNAc
# How it was run: as §1
# [14] = target: GlcNAc(a1-4)Gal(b1-3)GlcNAc
# How it was run: as §1
# [15] = target: GlcNAc(a1-4)Gal(b1-4)GalNAc
# How it was run: as §1
# [16] = target: GlcNAc(a1-4)Gal(b1-4)GlcNAc
# How it was run: as §1
# [17] = target: GlcNAc(a1-4)Gal(b1-4)GlcNAc(b1-3)Gal(b1-4)Glc
# How it was run: as §1
# [18] = target: GlcNAc(a1-4)Gal(b1-4)GlcNAc(b1-3)Gal(b1-4)GlcNAc
# How it was run: as §1
# [19] = target: GlcNAc(a1-4)Gal(b1-4)GlcNAc(b1-3)Gal(b1-4)GlcNAc(b1-3)Gal(b1-4)GlcNAc
# How it was run: as §1
# [20] = target: GlcNAc(a1-4)Gal(b1-4)GlcNAc(b1-3)Gal(b1-4)[Fuc(a1-3)]GlcNAc(b1-3)Gal(b1-4)[Fuc(a1-3)]GlcNAc
# How it was run: as §1
binder,measurement,setting,value
B1,glycan array binding signal (z-score),[1],-0.355
same,glycan array binding signal (z-score),GalNAc(b1-3)Gal,0.986
same,glycan array binding signal (z-score),[2],-0.151
same,glycan array binding signal (z-score),[3],-0.087
same,glycan array binding signal (z-score),[4],-0.523
same,glycan array binding signal (z-score),GalNAc(b1-3)GalNAc,-0.429
same,glycan array binding signal (z-score),GalNAc(b1-3)GlcNAc,-0.513
same,glycan array binding signal (z-score),GalNAc(b1-4)Gal(b1-4)Glc,0.06
same,glycan array binding signal (z-score),GalNAc(b1-4)GlcNAc,0.202
same,glycan array binding signal (z-score),[5],0.551
same,glycan array binding signal (z-score),[6],-0.305
same,glycan array binding signal (z-score),[7],-0.196
same,glycan array binding signal (z-score),GalNAc(b1-4)GlcNAc6S,0.602
same,glycan array binding signal (z-score),GalNAc(b1-6)GalNAc,-0.638
same,glycan array binding signal (z-score),GalNAc3S(b1-4)GlcNAc,-0.68
same,glycan array binding signal (z-score),GalNAc3S(b1-4)GlcNAc3S,-0.704
same,glycan array binding signal (z-score),[8],-0.042
same,glycan array binding signal (z-score),GalNAc4S6S(b1-4)GlcNAc,-0.536
same,glycan array binding signal (z-score),GalNAc6S(b1-4)GlcNAc,-0.684
same,glycan array binding signal (z-score),Glc(a1-4)Glc,-0.735
same,glycan array binding signal (z-score),[9],-0.648
same,glycan array binding signal (z-score),Glc(a1-6)Glc(a1-6)Glc,-0.709
same,glycan array binding signal (z-score),[10],-0.455
same,glycan array binding signal (z-score),Glc(b1-4)Glc,-0.744
same,glycan array binding signal (z-score),Glc(b1-6)Glc,1.04
same,glycan array binding signal (z-score),GlcA(b1-3)Gal,-0.608
same,glycan array binding signal (z-score),GlcA(b1-3)GlcNAc,-0.382
same,glycan array binding signal (z-score),GlcA(b1-6)Gal,-0.582
same,glycan array binding signal (z-score),[11],-0.629
same,glycan array binding signal (z-score),[12],-0.618
same,glycan array binding signal (z-score),[13],-0.704
same,glycan array binding signal (z-score),[14],-0.319
same,glycan array binding signal (z-score),[15],-0.57
same,glycan array binding signal (z-score),[16],-0.728
same,glycan array binding signal (z-score),[17],-0.631
same,glycan array binding signal (z-score),[18],-0.783
same,glycan array binding signal (z-score),[19],-0.654
same,glycan array binding signal (z-score),[20],0.282
